Experimental data as given in patent US10299477B2 (priority 2015, dated 2019).

Tests used:
Assay type in all cases: in vivo
[1] = test system: Alternaia brassicicola; assay: Test Example C: Alternaria sooty spot on cabbage; conditions: for Test C control value (Alternaria sooty spot on cabbage): preventive, control value class; for Test C (control value class, Alternaria sooty spot on cabbage): in vivo; for Test C (control value class): Alternaria sooty spot on cabbage
Text: [Test Example C] Alternaria Sooty Spot on Cabbage
Seeds of a test plant (cabbage variety: Shikidori) were planted followed by cultivating until the cotyledons extended.

[2] = test system: Puccinia recondita; assay: Test Example E: Brown rust on wheat; conditions: for Test E control value (brown rust on wheat): preventive, control value class; for Test E (control value class, brown rust on wheat): in vivo
Text: [Test Example E] Brown Rust on Wheat

[3] = test system: Blumeria graminis f sp. hordei; assay: Test Example D: Powdery mildew on barley; conditions: for Test D control value (powdery mildew on barley): preventive, control value class; for Test D (control value class, powdery mildew on barley): in vivo
Text: [Test Example D] Powdery Mildew on Barley
After the sprayed dilutions were dried, conidia of Blumeria graminis f sp. hordei were inoculated to the plants by shaking off.

[4] = test system: Plasmopara viticola; assay: Test Example G: Downy mildew on vine; conditions: for Test G control value (downy mildew on vine): 250 ppm spray (2.5 ml/pot), preventive, control value class; for Test G (control value class, downy mildew on vine): 250 ppm, sprayed 2.5 ml/pot before inoculation; for Test G (control value class): 250 ppm spray
Text: [Test Example G] Downy Mildew on Vine
Seeds of a test plant (grape variety: Neomuscat) were planted followed by cultivating until three to four first leaves appeared. […] After the sprayed dilutions were dried, a zoosporangia suspension (1-2×10^4 zoosporangia/ml) of Plasmopara viticola was inoculated to the plants by spraying.

[5] = test system: Botrytis cinerea; assay: Test Example B: Gray mold on tomato; conditions: for Test B control value (gray mold on tomato): preventive, control value class; for Test B (control value class, gray mold on tomato): in vivo
Text: [Test Example B] Gray Mold on Tomato
Seeds of a test plant (tomato variety: Oogata Fukuju) were planted followed by cultivating until three to five first leaves (true leaves) appeared.

[6] = evaluated 7-10 days after inoculation
[7] = brown rust on wheat, Puccinia recondita, 250 ppm spray
[8] = powdery mildew on barley, 250 ppm spray
[9] = downy mildew on vine, Plasmopara viticola, 7-10 days after inoculation
[10] = gray mold on tomato, Botrytis cinerea, 250 ppm spray

SMILES	Test C control value (Alternaria sooty spot on cabbage) ([1]; 250 ppm spray)	Test E control value (brown rust on wheat) ([2]; 250 ppm spray)	Test D control value (powdery mildew on barley) ([3]; 250 ppm spray)	Test G control value (downy mildew on vine) ([4]; 7-10 days after inoculation)	Test B control value (gray mold on tomato) ([5]; 250 ppm spray)	Test C (control value class, Alternaria sooty spot on cabbage) [1]	Test E (control value class, brown rust on wheat) [2]	Test D (control value class, powdery mildew on barley) [3]	Test G (control value class, downy mildew on vine) [4, 6]	Test B (control value class, gray mold on tomato) [5]	also measured
CCCCOc1ccc(Cl)c(-c2ccc(=O)n(C)c2-c2c(F)cccc2F)c1 [Compound 253]	H (H shows more than 50% of control values)	L (L shows 50% or less of control values)	H (H shows more than 50% of control values)	H (H shows more than 50% of control values)	H (H shows more than 50% of control values)						
CCn1c(-c2c(F)cccc2F)c(-c2cc(OC)ccc2Cl)ccc1=O [Compound 582]						H (H shows more than 50% of control values)	H (H shows more than 50% of control values)	H (H shows more than 50% of control values)	H (H shows more than 50% of control values)	H (H shows more than 50% of control values)	
COc1ccc(Cl)c(-c2cc(C)c(=O)n(C)c2-c2c(F)cc(F)cc2F)c1 [Compound 726]						H (H shows more than 50% of control values)	H (H shows more than 50% of control values)	H (H shows more than 50% of control values)	L (L shows 50% or less of control values)	H (H shows more than 50% of control values)	
CCn1c(-c2c(F)cc(F)cc2F)c(-c2ccccc2F)cc(Cl)c1=O [Compound 529]											Test C (control value class) ([1]; 250 ppm spray): H (H shows more than 50% of control values); Test E (control value class) [2, 7]: H (H shows more than 50% of control values); Test D (control value class) [3, 8]: H (H shows more than 50% of control values); Test G (control value class) [4, 9]: H (H shows more than 50% of control values); Test B (control value class) [5, 10]: H (H shows more than 50% of control values)
CCn1c(-c2c(F)cccc2F)c(-c2cccc(C#N)c2)ccc1=O [Compound 341]	L (L shows 50% or less of control values)	L (L shows 50% or less of control values)	L (L shows 50% or less of control values)	L (L shows 50% or less of control values)	L (L shows 50% or less of control values)						
COc1cc(F)c(-c2c(-c3cc(F)cc(F)c3Cl)ccc(=O)n2C)c(F)c1 [Compound 676]						H (H shows more than 50% of control values)	H (H shows more than 50% of control values)	H (H shows more than 50% of control values)	H (H shows more than 50% of control values)	H (H shows more than 50% of control values)	
CCOCOc1ccc(Cl)c(-c2ccc(=O)n(CC)c2-c2c(F)cccc2F)c1 [Compound 325]	H (H shows more than 50% of control values)	H (H shows more than 50% of control values)	H (H shows more than 50% of control values)	L (L shows 50% or less of control values)	H (H shows more than 50% of control values)						
COc1cc(F)c(-c2c(-c3cc(F)c(F)cc3F)ccc(=O)n2C)c(F)c1 [Compound 654]						H (H shows more than 50% of control values)	H (H shows more than 50% of control values)	H (H shows more than 50% of control values)	L (L shows 50% or less of control values)	H (H shows more than 50% of control values)	
CCn1c(-c2c(F)cc(Br)cc2F)c(-c2cc(OC)cc(OC)c2Br)ccc1=O [Compound 200]	H (H shows more than 50% of control values)	H (H shows more than 50% of control values)	H (H shows more than 50% of control values)	H (H shows more than 50% of control values)	H (H shows more than 50% of control values)						
CCn1c(-c2c(F)cccc2F)c(-c2cc(F)cc(F)c2F)cc(Br)c1=O [Compound 441]											Test C (control value class) ([1]; 250 ppm spray): H (H shows more than 50% of control values); Test E (control value class) [2, 7]: H (H shows more than 50% of control values); Test D (control value class) [3, 8]: H (H shows more than 50% of control values); Test G (control value class) [4, 9]: L (L shows 50% or less of control values); Test B (control value class) [5, 10]: H (H shows more than 50% of control values)
CCOc1cc(F)c(-c2c(-c3cccc(F)c3Cl)cc(C)c(=O)n2CC)c(F)c1 [Compound 660]						H (H shows more than 50% of control values)	H (H shows more than 50% of control values)	H (H shows more than 50% of control values)	H (H shows more than 50% of control values)	H (H shows more than 50% of control values)	
CCn1c(-c2c(F)cccc2F)c(-c2cc(F)ccc2Cl)ccc1=O [Compound 358]	H (H shows more than 50% of control values)	H (H shows more than 50% of control values)	H (H shows more than 50% of control values)	H (H shows more than 50% of control values)	H (H shows more than 50% of control values)						
CCn1c(-c2c(F)cc(F)cc2F)c(-c2ccccc2F)cc(C)c1=O [Compound 542]											Test C (control value class) ([1]; 250 ppm spray): H (H shows more than 50% of control values); Test E (control value class) [2, 7]: H (H shows more than 50% of control values); Test D (control value class) [3, 8]: H (H shows more than 50% of control values); Test G (control value class) [4, 9]: H (H shows more than 50% of control values); Test B (control value class) [5, 10]: H (H shows more than 50% of control values)
COc1cccc(-c2ccc(=O)n(C)c2-c2c(F)cc(F)cc2F)c1Cl [Compound 661]						H (H shows more than 50% of control values)	H (H shows more than 50% of control values)	H (H shows more than 50% of control values)	H (H shows more than 50% of control values)	H (H shows more than 50% of control values)	
CCn1c(-c2c(F)cccc2F)c(-c2ccc(C)cc2)ccc1=O [Compound 269]	H (H shows more than 50% of control values)	H (H shows more than 50% of control values)	H (H shows more than 50% of control values)	H (H shows more than 50% of control values)	H (H shows more than 50% of control values)						
CCn1c(-c2c(F)cc(F)cc2F)c(-c2cc(OC)ccc2Cl)cc(Br)c1=O [Compound 768]											Test C (control value class) ([1]; control value=100{1-(n/3)}): H (H shows more than 50% of control values); Test E (control value class) ([2]; Brown rust on wheat, control value=100{1-(n/3)}): H (H shows more than 50% of control values); Test D (control value class) ([3]; Powdery mildew on barley, control value=100{1-(n/3)}): H (H shows more than 50% of control values); Test G (control value class) ([4]; Downy mildew on vine, 2.5 ml/pot, evaluated 7-10 days after inoculation): H (H shows more than 50% of control values); Test B (control value class) ([5]; Gray mold on tomato, control value=100{1-(n/3)}): H (H shows more than 50% of control values)
